Reference: paper PMC4511761, “Chromosome Missegregation Associated with RUVBL1 Deficiency” (PLoS ONE, 2015)

Target: T1, His-tagged RUVBL2 (murine) (mouse, UniProt Q9WTM5)
T1 construct: Murine RUVBL2 amplified from 18.81 cDNA with primers from the start codon to the stop codon, in pET28a(+); also called His-RUVBL2; source: E. coli, co-expressed with GST-tagged RUVBL1 and co-purified on GSH beads; E. coli, purified with His-RUVBL1 (Ni-NTA, Mono-Q, Superose 6); not shown: His tag, N-terminal, kept
Experiment: SEC; His-RUVBL1/2 expressed in E. coli, purified by Ni-NTA, Mono-Q and Superose 6 gel filtration chromatography
Details: both partners purified

binding result: binds
B1: His-tagged RUVBL1 (murine) (natural protein)
chain: not shown
notes: Murine RUVBL1 amplified from 18.81 cDNA with primers from the start codon to the stop codon, subcloned in pET28a(+); also called His-RUVBL1; source: E. coli, purified with His-RUVBL2 (Ni-NTA, Mono-Q, Superose 6); not shown: His tag, N-terminal, kept
